Assay results taken from PubChem BioAssay AID652104 (National Center for Advancing Translational Sciences (NCATS), 2013).
About 7,200 (1.8%) of roughly 410,000 compounds were called active. This list was built around the results that the source calls inconclusive (neither active nor inactive); the mix of calls is not that of the screen. The call rests on the fitted dose curve; in most records, active means well fitted activation curve with a large enough effect; inconclusive means small, poorly fitted or top-dose-only effect, or another doubt; inactive means no such curve, though single readings can be large or run the other way. No potency is given beside an inconclusive call; the fits are too rough.

assay: qHTS of TDP-43 Inhibitors; conditions: TDP-43 expressing yeast growth rescue, BacTiter-Glo, 24 h; growth rescue (activation): at 46.1 µM (top of the series) unless noted; further: nearly all actives have a fitted effect of over 50% in size; on growth rescue (activation): % of control where 0% means no effect
Method in brief: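 Galactose-induced TDP-43 yeast, OD600=0.02, compound pinned; 24 hr, 30 deg C; BacTiter-Glo luminescence for growth. Inhibitors of TDP-43 toxicity read as activators.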
Potency means the concentration at half of the fitted maximal effect; tags describe the fitted curve by direction and shape.

SMILES	Potency	growth rescue (activation)
CCO/C=C1/C(=O)N(C)C(=O)c2cc(OC)ccc21	active: 12.6 µM	–
CCOC(=O)c1cnn(-c2ccccn2)c1N	inconclusive [activator, full curve, poor fit]	–
CC(NC(=O)c1ccc([N+](=O)[O-])o1)C12CC3CC(CC(C3)C1)C2 (stereo not given)	inconclusive [activator, full curve]	–
Cc1nn(-c2ccccc2)c2sc(C(=O)O)cc12	inconclusive [activator, single point]	–
COc1ccc(Cc2nc(C(=O)Nc3ccc(F)cc3)cs2)cc1	inconclusive [activator, partial curve]	–
CCC1CN(C(=O)N2CCC(C(=O)N(C)Cc3ccccc3)CC2)c2ccccc2O1 (stereo not given)	–	inactive: 13.9%
CC(=O)N(c1ccc(Cl)cc1)c1cn(C(C)=O)c2ccccc12	active: 20 µM	–
O=C(CN(Cc1ccco1)C(=O)c1ccccc1)Nc1ccc(Cl)c(Cl)c1	inconclusive [activator, partial curve]	–
N#Cc1nc(COc2cccc(Cl)c2)oc1NCc1ccco1	inconclusive [activator, single point]	–
CCC1CN(C(=O)Nc2ccccc2C(F)(F)F)c2ccccc2S1 (stereo not given)	–	inactive: -4.41%
Cc1cc(C)c(S(=O)(=O)Nc2nnc(C(C)C)s2)c(C)c1	inconclusive [activator, single point]	–
CNc1oc(-c2ccc(Cl)cc2)nc1P(=O)(c1ccccc1)c1ccccc1	active: 17.8 µM	–
Fc1ccccc1N1CCN(c2c3c(nc4nncn24)CCC3)CC1	inconclusive [activator, partial curve]	–
Cn1ncc2c(N3CCN(c4ccccc4Cl)CC3)ncnc21	inconclusive [activator, partial curve]	–
CC(C)c1ccc(NC(=O)C2C3C=CC(CC3)C2C(=O)O)cc1 (stereo not given)	active: 12.6 µM	–
CCOc1ccccc1NC(=S)NC(=O)c1ccco1	active: 14.1 µM	–
Cc1cccc(C(=O)NN/C=C/C(=O)c2ccccc2)c1	inconclusive [activator, single point]	–
C=CCn1c(SCc2ccc3c(c2)OCO3)nc2scc(-c3ccco3)c2c1=O	inconclusive [activator, single point]	–
O=C(NCc1ccco1)c1ccccc1NS(=O)(=O)c1ccc(Br)s1	inconclusive [activator, single point]	–
N#CCOC(=O)C1c2ccccc2Oc2ccccc21	inconclusive [activator, single point]	–
Cc1nn(-c2ccccc2)c(N2CCCC2)c1/C=N/NC(=O)c1cc(-c2ccccn2)nc2ccccc12	inconclusive [activator, full curve, poor fit]	–
O=[N+]([O-])c1ccc(Nc2ccc(F)cc2)nc1	–	inactive: 21.9%
CCCCCCCc1n[nH]c(=S)n1Cc1ccccc1	active: 15.8 µM	–
O=C(CSc1nnc(-c2ccccn2)n1Cc1ccco1)c1ccccc1	–	inactive: -7.55%

SMILES	Potency	growth rescue (activation)
CC1Cc2cc(-c3csc(N)n3)ccc2O1 (stereo not given)	inconclusive [activator, single point]	–
O=C(CCN1CCN(c2ccccc2)CC1)N/N=C/c1ccc([N+](=O)[O-])o1	inconclusive [activator, single point]	–
COc1ccccc1-n1c(=O)n(C)c2c(C(N)=O)nc(-c3cc(OC)c(OC)c(OC)c3)nc21	–	inactive: 17.9%
Cc1cc(C)c2c(N)c(C(=O)Nc3ccccc3C(F)(F)F)sc2n1	inconclusive [activator, partial curve, poor fit]	–
CCOC(=O)c1cc(N)cc([N+](=O)[O-])c1	inconclusive [activator, partial curve]	–
Cc1c(C)n(Cc2ccc(F)cc2)c2ccc(C(=O)N3CCN(c4ccccn4)CC3)cc12	inconclusive [activator, partial curve]	–
O=C(c1ccccc1[N+](=O)[O-])n1cnc2ccccc21	inconclusive [activator, single point]	–
CC(C)(C)NC(=O)C(c1ccc(-c2ccccc2)cc1)N(C[C@H]1CC[C@@H]([C@@H]2CC[C@H](CO)O2)O1)C(=O)c1cccc(Cl)c1 (stereo not given in full)	inconclusive [activator, full curve, poor fit]	–
O=C(NCc1ccc(Cl)cc1Cl)c1cccc(N2CCCS2(=O)=O)c1	–	inactive: 21%
Cc1oc2c(c1C(=O)c1ccccc1)C(=O)C(=O)c1ccccc1-2	active: 15.8 µM	–
CCOC(=O)C(C)On1c(-c2ccc(Cl)cc2)nc2ccc([N+](=O)[O-])cc21 (stereo not given)	inconclusive [activator, single point]	–
COc1ccc(-c2cc3nc(C)n(N)c(=O)c3s2)cc1	–	inactive: -32.5%
COc1ccc(C)cc1NC(=O)Nc1ccccc1	–	inactive: -3.1%
CC(=O)c1ccc(OC(=O)c2ccc(-n3nc(C)cc3C)cc2)cc1	inconclusive [activator, full curve]	–
Cc1cccc(NC(=O)c2ccc([N+](=O)[O-])s2)n1	inconclusive [activator, single point]	–
CCCSc1ncc(Cl)c(C(=O)N2CCN(c3ccc(OC)cc3)CC2)n1	inconclusive [activator, partial curve]	–
Cc1cc(NC(=O)CSc2nccn2-c2cccc(Cl)c2)no1	inconclusive [activator, single point]	–
COc1ccc(OC)c(NC(=O)COCc2cc(-c3ccc(F)cc3)on2)c1	inconclusive [activator, single point]	–
CC(Sc1nc2ccccc2n1C)C(=O)NC(c1ccccc1)c1ccccc1 (stereo not given)	inconclusive [activator, single point]	–
NNc1nc(-c2ccccc2)cc(-c2ccccc2O)n1	inconclusive [activator, single point]	–
c1ccc2c(c1)CCN(c1ncnc3c1[nH]c1ccccc13)C2	inconclusive [activator, single point]	–
CCNC(=O)C(=O)Nc1ccc2c(c1)N(S(=O)(=O)c1cccs1)CCC2	inconclusive [activator, single point]	–
Fc1ccc(NCc2cccnc2)cc1F	–	inactive: -20.7%
N#Cc1c(N)nc2c(c1-c1ccccc1)CCC2	inconclusive [activator, single point]	–

SMILES	Potency	growth rescue (activation)
COc1ccc(Cl)cc1NCCC(O)c1ccc(F)cc1 (stereo not given)	inconclusive [activator, partial curve]	–
Cc1[nH]n(C2=NCCS2)c(=O)c1N=Nc1cccc(C(F)(F)F)c1	–	inconclusive: -55.5% [activator]
O=C(NCc1cccc(Br)c1)C1CC(c2ccccc2[N+](=O)[O-])=NO1 (stereo not given)	inconclusive [activator, partial curve]	–
CN(CC(=O)Nc1cccc(F)c1)C(=O)CC1CCCCC1	inconclusive [activator, single point]	–
Cc1ccc(C(=O)c2cnc3ccccc3c2-c2ccccc2)cc1	inconclusive [activator, single point]	–
Cc1ccc(N2C(=O)CSC23C(=O)N(CC(=O)Nc2ccccc2F)c2ccccc23)cc1C (stereo not given)	–	inactive: 28.8%
CN(C)c1ccc(CNC(=O)c2ccc3nc(CCc4ccccc4)oc3c2)cc1	–	inactive: 5.45%
CC(=O)Nc1ccc2oc(-c3cc(F)c(F)cc3Cl)nc2c1	inconclusive [activator, full curve]	–
O=C(CCNC(=O)c1ccccc1Cl)Nc1cc(C(F)(F)F)ccc1N1CCCC1	inconclusive [activator, partial curve]	–
CC1(C(=O)NCc2ccc(F)c(F)c2)Cc2c(-c3ccccc3)ccnc2O1 (stereo not given)	active: 35.5 µM	–
CCc1cccc(NC(=O)CCNS(=O)(=O)c2ccc3c(c2)CCN3C(C)=O)c1	inconclusive [activator, full curve]	–
COc1ccccc1CNC(=O)C1CC(c2ccccc2C(F)(F)F)=NO1 (stereo not given)	inconclusive [activator, single point]	–
CCOC(=O)c1c(-c2ccccc2)csc1NC(=O)c1cc2ccccc2oc1=O	inconclusive [activator, full curve, poor fit]	–
CCC(C)c1ccc(NC(=O)CC(C)=O)cc1 (stereo not given)	inconclusive [activator, single point]	–
Cc1nn(-c2ccc(C(=O)O)cc2)c(C)c1Cl	inconclusive [activator, single point]	–
COc1cccc(CNC(=O)CCCc2nnc3n(C)c(=O)c4sccc4n23)c1	–	inactive: -2.22%
COc1ccc(-c2nc3ccccc3n3c(-c4ccccc4)c4c(=O)n(C)c(=O)n(C)c4c23)cc1	–	inactive: 0%
COc1ccc(-c2cc(C(=O)N3CCN(c4ccccc4F)CC3)c3ccccc3n2)c(OC)c1	–	inconclusive: -87.5% [activator]
C/C(=C(/CCO)SSCC1CCCO1)N(C=O)Cc1cnc(C)nc1N (stereo not given)	inconclusive [activator, partial curve]	–
COc1ccc(-c2c(-c3ccccc3OC)sc3ccccc23)cc1	–	inactive: 1.34%
N/C(=N\OC(=O)c1ccoc1)c1ccc(Br)cc1	–	inconclusive: -73.4% [activator]
O=C(CSCC(=O)OCC(=O)c1ccc(Br)cc1)Nc1cccc2ccccc12	inconclusive [activator, partial curve]	–
